Here are results for 20 cell lines from the supplement of paper PMC4967469.

A lower IC50 marks a more sensitive line; a limit (>, <) means that the fit lies beyond the doses tested. For AUC the same curve is integrated over the 256-fold range of doses and scaled to a fraction; values near 1 show little effect. Where the top dose is marked as inferred, it was derived from the fitted curves, not read from the paper. For some of these results: Where an entry number is given, a second screen of the drug exists; the two often differ.

Compound in one experiment: COc1cc(-c2nn([C@H]3CC[C@H](N4CCN(C(C)=O)CC4)CC3)c3ncnc(N)c23)ccc1NC(=O)c1cc2ccccc2n1C [A-770041]
As to the kind of experiment: Viability of human cancer cell lines after 72 h of drug (GDSC screen). The conditions noted are these: top dose 5.12 µM; top dose inferred. The procedure: (§1)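 Human cancer cell lines in 384-well plates, medium with 10% serum, drug for 72 h over a 256-fold dose range (nine 2-fold or five 4-fold steps up to the top dose). Adherent lines were fixed and stained with the nucleic acid dye Syto60, suspension lines read with resazurin; signal relative to control wells, capped at 0 and 100%. One two-parameter sigmoid per drug and line, fitted in a mixed model over all curves with the slope shared within a line.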
Take “OCI-AML3 (acute myeloid leukaemia, suspension)”: the AUC amounted to 0.991 and the IC50 was more than 5.12 µM.

For the cell line “OCI-AML5 (acute myeloid leukaemia, suspension)”, the AUC was found to be 0.944 and the IC50 is more than 5.12 µM.

Consider OCI-LY-19 (B-cell lymphoma, suspension), for which the AUC amounted to 0.966 and the IC50 is more than 5.12 µM.

For OCUB-M (breast, adherent), the AUC stood at 0.862 and the IC50 worked out at 3.44 µM.

Regarding ONS-76 (medulloblastoma, adherent), the AUC was found to be 0.953 and the IC50 is more than 5.12 µM.

On to OS-RC-2 (kidney, adherent), for which the AUC stood at 0.589 and the IC50 was 0.626 µM.

Consider RH-1 (rhabdomyosarcoma, adherent), for which the AUC came out at 0.984 and the IC50 is more than 5.12 µM.

In the case of RKO (large intestine, adherent), the AUC came out at 0.819 and the IC50 was found to be 2.65 µM.

For the cell line RL (B-cell lymphoma, suspension), the AUC was 0.976 and the IC50 is more than 5.12 µM.

Regarding “RPMI-8402 (T-cell lymphoblastic leukaemia, suspension)”, the AUC was determined as 0.918 and the IC50 is more than 5.12 µM.

On to “RPMI-8866 (chronic myeloid leukaemia, suspension)”, for which the AUC came out at 0.988 and the IC50 was more than 5.12 µM.

Consider RXF393 (kidney, adherent), for which the AUC is 0.633 and the 50% inhibitory concentration (IC50) stood at 0.859 µM.

As to “SBC-1 (small cell lung carcinoma, suspension)”, the AUC was 0.986 and the IC50 is more than 5.12 µM.

Turning to SF126 (glioma, adherent), the AUC turned out to be 0.87 and the IC50 was more than 5.12 µM.

Consider SF268 (glioma, adherent), for which the AUC amounted to 0.816 and the IC50 was 3.12 µM.

Compound in another experiment: COc1cc(N2CCN(C)CC2)ccc1Nc1ncc2c(n1)N(C)c1ccccc1C(=O)N2C [XMD8-85]
The description is as above. The conditions noted are these: top dose 8 µM; top dose inferred. How it is done: as §1
For NCI-SNU-5 (stomach, suspension), the AUC was found to be 0.973 and the IC50 is more than 8 µM.

Take NCI-SNU-16 (stomach, suspension): the AUC was 0.919 and the IC50 is more than 8 µM.

Regarding NH-12 (neuroblastoma, adherent), the AUC came to 0.871 and the half-inhibitory concentration (IC50) is more than 8 µM.

With NMC-G1 (glioma, adherent), the AUC amounted to 0.904 and the IC50 was more than 8 µM.

Turning to NOS-1 (osteosarcoma, adherent), the AUC came to 0.738 and the IC50 was found to be 2.85 µM.

“OCI-AML3 (acute myeloid leukaemia, suspension)”: the AUC is 0.941 and the IC50 was more than 8 µM.

As to “OCI-AML5 (acute myeloid leukaemia, suspension)”, the AUC is 0.823 and the IC50 was 4.17 µM.

For the cell line OCI-LY-19 (B-cell lymphoma, suspension), the AUC turned out to be 0.854 and the IC50 was 5.56 µM.

In the case of OCUB-M (breast, adherent), the AUC worked out at 0.935 and the concentration for half-maximal inhibition (IC50) is more than 8 µM.

For ONS-76 (medulloblastoma, adherent), the AUC turned out to be 0.903 and the IC50 was more than 8 µM.

For the cell line OS-RC-2 (kidney, adherent), the AUC came out at 0.863 and the IC50 is more than 8 µM.

For RH-1 (rhabdomyosarcoma, adherent), the AUC amounted to 0.946 and the IC50 was more than 8 µM.

Take RKO (large intestine, adherent): the AUC stood at 0.799 and the IC50 amounted to 3.52 µM.

In the case of RL (B-cell lymphoma, suspension), the AUC stood at 0.695 and the IC50 is 1.67 µM.

Turning to “RPMI-8402 (T-cell lymphoblastic leukaemia, suspension)”, the AUC amounted to 0.85 and the IC50 was determined as 4.65 µM.

As to “RPMI-8866 (chronic myeloid leukaemia, suspension)”, the AUC was found to be 0.959 and the IC50 is more than 8 µM.

Turning to RXF393 (kidney, adherent), the AUC is 0.915 and the 50% inhibitory concentration (IC50) was more than 8 µM.

For “SBC-1 (small cell lung carcinoma, suspension)”, the AUC is 0.942 and the IC50 is more than 8 µM.

SF126 (glioma, adherent): the AUC is 0.89 and the IC50 is more than 8 µM.

Take SF268 (glioma, adherent): the AUC was 0.862 and the IC50 worked out at 7.71 µM.

Compound in a further experiment: Cc1cc(N2CCOCC2)cc2[nH]c(-c3c(NC[C@@H](O)c4cccc(Cl)c4)cc[nH]c3=O)nc12 [BMS-536924]
The description is as above. The conditions noted are these: top dose 4 µM; screen: GDSC drug entry 1091; top dose inferred. How it is done: as §1
Turning to NCI-SNU-5 (stomach, suspension), the AUC came out at 0.988 and the IC50 is more than 4 µM.

For the cell line NCI-SNU-16 (stomach, suspension), the AUC came to 0.747 and the half-maximal inhibitory concentration (IC50) worked out at 1.15 µM.

As to NH-12 (neuroblastoma, adherent), the AUC is 0.714 and the IC50 stood at 1.1 µM.

Turning to NMC-G1 (glioma, adherent), the AUC is 0.968 and the IC50 was more than 4 µM.

Turning to NOS-1 (osteosarcoma, adherent), the AUC worked out at 0.794 and the IC50 was 2.33 µM.

Consider “OCI-AML3 (acute myeloid leukaemia, suspension)”, for which the AUC came to 0.902 and the IC50 worked out at 3.92 µM.

Turning to “OCI-AML5 (acute myeloid leukaemia, suspension)”, the AUC was determined as 0.682 and the IC50 turned out to be 0.768 µM.

Regarding OCI-LY-19 (B-cell lymphoma, suspension), the AUC stood at 0.966 and the IC50 is more than 4 µM.

For the cell line OCUB-M (breast, adherent), the AUC was found to be 0.972 and the IC50 is more than 4 µM.

As for ONS-76 (medulloblastoma, adherent), the AUC came out at 0.983 and the IC50 is more than 4 µM.

As to OS-RC-2 (kidney, adherent), the AUC amounted to 0.883 and the IC50 was more than 4 µM.

Consider RH-1 (rhabdomyosarcoma, adherent), for which the AUC came out at 0.608 and the IC50 came to 0.469 µM.

Turning to RKO (large intestine, adherent), the AUC was found to be 0.971 and the IC50 is more than 4 µM.

With RL (B-cell lymphoma, suspension), the AUC is 0.948 and the IC50 was more than 4 µM.

For the cell line “RPMI-8402 (T-cell lymphoblastic leukaemia, suspension)”, the AUC worked out at 0.986 and the IC50 was more than 4 µM.

With “RPMI-8866 (chronic myeloid leukaemia, suspension)”, the AUC was found to be 0.852 and the IC50 is 2.75 µM.

In the case of RXF393 (kidney, adherent), the AUC is 0.896 and the IC50 was more than 4 µM.

On to “SBC-1 (small cell lung carcinoma, suspension)”, for which the AUC was determined as 0.943 and the 50% inhibitory concentration (IC50) was more than 4 µM.

Turning to SF126 (glioma, adherent), the AUC is 0.965 and the IC50 is more than 4 µM.

Turning to SF268 (glioma, adherent), the AUC was 0.968 and the 50% inhibitory concentration (IC50) is more than 4 µM.

Staying with this experiment, now noted: top dose 5.12 µM; screen: GDSC drug entry 62.
On to NCI-SNU-5 (stomach, suspension), for which the AUC was 0.983 and the IC50 is more than 5.12 µM.

Turning to NCI-SNU-16 (stomach, suspension), the AUC stood at 0.66 and the concentration for half-maximal inhibition (IC50) turned out to be 0.838 µM.

For NH-12 (neuroblastoma, adherent), the AUC is 0.954 and the IC50 was more than 5.12 µM.

For the cell line NMC-G1 (glioma, adherent), the AUC was 0.729 and the half-maximal inhibitory concentration (IC50) turned out to be 1.69 µM.

Take NOS-1 (osteosarcoma, adherent): the AUC came out at 0.367 and the IC50 stood at 0.126 µM.

For the cell line “OCI-AML3 (acute myeloid leukaemia, suspension)”, the AUC is 0.981 and the IC50 was more than 5.12 µM.

Take “OCI-AML5 (acute myeloid leukaemia, suspension)”: the AUC is 0.448 and the IC50 came to 0.234 µM.

As for OCI-LY-19 (B-cell lymphoma, suspension), the AUC was found to be 0.815 and the IC50 was determined as 2.55 µM.

With OCUB-M (breast, adherent), the AUC turned out to be 0.898 and the 50% inhibitory concentration (IC50) was determined as 4.91 µM.

Consider ONS-76 (medulloblastoma, adherent), for which the AUC came to 0.927 and the IC50 is more than 5.12 µM.
